From the supplement of paper PMC4604168 (melanoma cell lines)
The other results are listed elsewhere or left out. Repeats are few or missing, and single values can be far off.

These compounds were tested on WM3619 (assay: cell count relative to DMSO control; melanoma cells; higher = more viable cells). Settings: library dose: standard library concentration; 72 h; first compound 2 µM.
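Further: cells treated in 1,536-well plates, then fixed and DAPI-stained, with nuclei counted from automated high-throughput microscope images.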

| Compound | cell count [%] |
| --- | --- |
| CCCCCCCCCCCCCCCCCCOP(=O)([O-])OC1CC[N+](C)(C)CC1 [Perifosine] + CO[C@@H]1[C@H](N(C)C(=O)c2ccccc2)C[C@H]2O[C@]1(C)n1c3ccccc3c3c4c(c5c6ccccc6n2c5c31)C(=O)NC4 [Midostaurin] (partner dose 0.4 µM) | 40.3 |
| C[C@@H](N)c1ccc(C(=O)Nc2ccnc3[nH]ccc23)cc1 + Cc1ccc(NC(=O)c2cccc(N(C)C)c2)cc1NC(=O)c1ccc(O)cc1 [ZM336372] (partner dose 10 µM) | 93 |
| CCCCCCCCCCCCCCCCCCOP(=O)([O-])OC1CC[N+](C)(C)CC1 [Perifosine] + OCCn1cc(-c2cnc3nnn(Cc4ccc5ncccc5c4)c3n2)cn1 [PF04217903] (partner dose 5 µM) | 110 |
| Cn1sc(=O)n(Cc2ccccc2)c1=O + O=C(Nc1cccc(Cl)c1)Nc1ncc(CCNc2ncnc3ccsc23)s1 [SNS314] (partner dose 0.004 µM) | 68.5 |
| CCCCCCCCCCCCCCCCCCOP(=O)([O-])OC1CC[N+](C)(C)CC1 [Perifosine] + C[C@@H]1CCN(C(=O)CC#N)C[C@@H]1N(C)c1ncnc2[nH]ccc12 [CP690550] (partner dose 5 µM) | 110 |
| Cn1sc(=O)n(Cc2ccccc2)c1=O + O=C(CCCCCCC(=O)Nc1ccccc1)NO [vorinostat] (partner dose 0.4 µM) | 63.6 |
| CCCCCCCCCCCCCCCCCCOP(=O)([O-])OC1CC[N+](C)(C)CC1 [Perifosine] + O=C(O)c1ccc(-c2c[nH]c3ncc(-c4ccccc4)cc23)cc1C1CCCC1 [GSK650394] (partner dose 0.8 µM) | 92.8 |
